# Laboratory results as given in the RNAGym collection of RNA variant scans (doi:10.1073/pnas.2313332121).
# Variants at the floor of the assay are shown more often than the library holds them.
# B1: TPR 5TU (parent)
# chain: GGAUCUUCUCGAUCUAACAAAAAAGACAAAUCUGCCACAAAGCUUGAGAGCAUCUUCGGAUGCAGAGGCGGCAGCCUUCGGUGGCGCGAUAGCGCCAACGUUCUCAACUAUGACACGCAAAACGCGUGCUCCGUUGAAUGGAGUUUAUCAUG
# Variants of: B1
# Assay: polymerase ribozyme fitness, log enrichment relative to wild type (log ratio); higher = more active; in vitro selection for triplet polymerase activity
# In short: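 Only genotypes with ≥10 input reads and ≥1 read per output were kept after Illumina sequencing of input and output libraries. These libraries were PCR-built, transcribed mutants of each subunit of a heterodimeric triplet polymerase ribozyme, each put through one triplicate in vitro selection round with frozen incubation at −7 °C, gel excision of extended constructs, streptavidin-bead capture and RT-PCR. Fitness is a logarithmic ratio of genotype enrichment to wild-type enrichment, from inverse-variance-weighted replicate averages, with the logarithm in base 2.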
row,Variant,polymerase ribozyme fitness (log ratio)
1,GGAUCUUCUCGAUCGAACAAAAAAGACAAAUCUGCCACAAAGCUUGAGAGCAUCUUGGGAUGCAGAGGCGGCAGCCUUCGGUGGCGCGAUAGAGCCAAGGUUCUCAACUAUGACACGCAAAACGCGUGCUCCGUUGAAUGGAGUUUAUCAUG,-4.06
2,GGAUCUUCUCGAUCGAACAAAAAAGACAAAUCUGCCACAAAGCUUGAGAGCAUCUUCGGAUGCAGAGGCGGCACCCUUCGGUGGCGCGAUCGCGCCAACGUUCUCAACUAUGACACGCAAAACGCGUGCUCCGAUGUAUGGAGUUUAGCAUG,≤ -4.2
3,GGAUCUUCUCGAUCUCUCAAAAAAGACAAAUCUGCCACAAAGCUUGAGAGAAUCUUCGGAUGCAGAGGCGGCAGCCUUCGGUGGCUCGAUAGCGACAACGUUCUCAACUAUGACACGCAAAACGCGUGCUCCGUUUAAUGGAGUUUAUCAUG,≤ -4.2
4,GGAUCUUCUCGAUCGAACAAAAAAGACAAAUCUGCCACAAAGCUCGAGAGCAUCUUCGGAUGCAGAGGCGACAGCCUUCGGUGGCGCGAUAGCUCCAACGUUCUCAACUAUGACACGCAAAACGCGUGCUCCGCUGAUUGGAGUGUAUCAUG,≤ -4.2
5,GGAUCUUCUCGAUCGAACAAAAAAGACAAAACUGCCACAAAGCUUGAGAGCAUCUUCGGAUGCAGAGGCGGCAGCCUUCGGUGGCGCGACAGCUCCAACGUUCUCAACUAUGACACGCAAAACAUGUGCUCCGUUGAAUGGAGUUUAUCAUG,≤ -4.2
6,GGAUCUUCUCGAUCGAACAAAAAAGACAAAUCUGCCACAAAGCUUGAGAGCAUCUUCGGAUGCAGAGGCGGCAGCCAUCGGUGGCGCGAUAGCGCAAACGUUCUCAACUAUGACACGCAAAACGCGUGCUCCGUUGAAUGGAGUUUAUCAUG,≤ -4.2
7,GGAUCUUCUCGAUCGAACAAAAAAGACAAAUCUGCCACAAAGCUUGAGAGCAACUUCGGAUGCAGAGGCGGCAGCCUUCGGUGGCGCGAUGGCGCCAACGUUCUCAACUAUGACACGCAAAACGCGUGCUCCGUUGAAUGGAGUUUAUCAUG,-2.83
8,GGAUCUUCUCGAUCGAACAAAAAAGACAAAUCUGCCACAAAGCUUGAGAGCAUAUUCGGAUGCAGCGGCGGCAACCUUCGGUGGCGCGAUAGCGCAAACGUUCUCAACUAUGACACGCAAAACGCGUGCUCCGUUGAAUGGAGUUUAUCAUG,≤ -4.2
9,GGAUCUUCUCGAUCUCGCAAAAAAGACAAAUCUGCCACAAAGGUUGAGAGCAUCUUCGGAUGCAGAGGCGGCAGCCUUCGGUGUCGCGAUAGCGCCAACGAUCUCAACUAUGACACGCAAAACGCGUGCUCCUUUGAAUGGAGUUUAUCAUG,≤ -4.2
10,GGAUCUUCUCGAUCGAACAAAAAAGACAAAUCUGCCACAAAGCUUGAGAGCAUCUUCGGAUGCAGAGGCGGCAGCCUUCGGUGGCGCGAUAGCGUCAACGUUCGCAACUAUGACACGCAAAACGCGUGCUCCGUUGAAUGGAGAUUAUCAUG,-0.599
11,GGAUCUUCUCGAUCGAACAAAAAAGACAAAUCUGCCACAAAGCUUGAGAGCAUCUUCGGAUGCACAGGCGGCAGCCUUAGGUGGCGCGAUAGCGCAAACGUUCUCAACUAUGACACGCAAAACGCGUGCUCCGUUGAAUGGAGUUUAUCAUG,≤ -4.2
12,GGAUCUUCUCGAUCUCUUAAAAAAGACAAAUCUGCCACAAACCUUGAGAGCAUCUUUGGAUGCAGAGGCGGCAGCCUUCGGUAGCGCGAUAGCGCCAACGUUCUCAACUAUGACACGCAAAACGCGUGCUCCGUUGCAUGGAGUUUAUCAUG,≤ -4.2
13,GGAUCUUCUCGAUCGAACAAAAAAGACAAAUCUGCCACAAAGCUUGAGAGCAUCUUCGGAUGCAGAGGCGGCAGCCUUCGGUGGCGCGAUAGCGCCAACGUUCUCAACUAUGACACGCAAAACGCGUGCUCCGUUGAAUGGAGUUUAUCAUU,-2.98
14,GGAUCUUCUCGAUCGAACAAAAAAGACAAAUCUGCCACAAAGCUUCAGAGCAUCUUCGUAUGCAGAGGCGGCAGCCUUCGGUGGCGCGAUAGUGCCAACGUUUUCAACUAUGACACGCAAAAUGCGUGCUCCGUUGAAUGGAGUUUAUCUUG,≤ -4.2
15,GGAUCUUCUCGAUCUCACUAAAAAGACAAAUCUGCCACAAAGCUUGAGAGCAUCUUCGGAUGCAGAGGCGGCAGCCUUCGGUGGUGCGAUAGCGCCAACGUUCUCAACUAUGACACUCAAAACGCGUGCUCCGUUGAAUGGAGUUUAUCUUG,0.0374
16,GGAUCUUCUCGAUCGAACAAAAAAGACAAAUCUGCCACAAAGCUUGAGAGCACCUUCGGAUGCAGAGGCGGGAGCCUUCGGUGGCGGGAUAGCGCCAACGUUCUCAACUAUGACACGCAAAACGCGUGCUCCGUUGAAUGGAGUUUAUCAUG,≤ -4.2
17,GGAUCUUCUCGAUCUCACAACAAAGACAUAUCUGCCCCAAAACUUGAGAGCAUCUUCGGAUGCAGAGGCGGCAGCCUUCGGUGGCGCGAUAGCGCCAACGUUCUCAACUAUGACACGCAAAACGCGUGCUCCGUUGAAUGGAGUUUAUCAUG,≤ -4.2
18,GGAUCUUCUCGAUCUCACAUAAAAGACUAAUCUGACACAAAGCUUGAGAUCAUCUUCGCAUGCAGAGGCGGCAGCCUUCGGUGACGGGAUAGCGCUAACGUUAUCAACUAUGACACGCAAAACGCGUGCUCCGUUGAAUGGAGUUUAUCAUG,≤ -4.2
19,GGAUCUUCUCGAUCGAACAAAAAAGACAAAUCUGCCACAAAGCUUGAGAGCAUCUUCGGAUGCAGAGGCAGCAGCCUUCGGUGGCGCGAUAGAGCCAACGUUCUCAACUACGACACGCAAAACGCGUGCUCCGUUGAAUGGAGUUUAUCAUG,≤ -4.2
